The results in this text go back to publication PMC4159876, “Quantitative Analysis of Tau-Microtubule Interaction Using FRET” (International Journal of Molecular Sciences, 2014).

This assay deals with T1, hTau40 protein labeled with carboxy tetramethylrhodamine succinimidyl ester (tau-rhodamine) (UniProt P10636-8 1-441, 5(6)-carboxytetramethylrhodamine (5(6)-TAMRA) on the N-terminal amine; close to 1 mole of dye per mole of protein).
T1 construct: tau, largest isoform (hTau40); Cys291 and Cys322 are named on this isoform; No tag is mentioned; also called labeled tau; tau derivatized with 5(6)-TAMRA
In words: FRET or BRET; FRET titration of tau-rhodamine with Flutax-2 microtubules assembled from subtilisin-cleaved tubulin (S-tubulin); apparent Kd; data not shown. The settings on record: both partners purified.

B1: microtubules assembled with Flutax-2 from subtilisin-cleaved tubulin (S-tubulin) (complex)
chain 1: [in this place about 450 residues]
chain 2: MREIVHIQAGQCGNQIGAKFWEVISDEHGIDPTGSYHGDSDLQLERINVYYNEATGNKYVPRAILVDLEPGTMDSVRSGPFGQIFRPDNFVFGQSGAGNNWAKGHYTEGAELVDSVLDVVRKESESCDCLQGFQLTHSLGGGTGSGMGTLLISKIREEYPDRIMNTFSVMPSPKVSDTVVEPYNATLSVHQLVENTDETYSIDNEALYDICFRTLKLTTPTYGDLNHLVSATMSGVTTCLRFPGQLNADLRKLAVNMVPFPRLHFFMPGFAPLTSRGSQQYRALTVPELTQQMFDSKNMMAACDPRHGRYLTVAAVFRGRMSMKEVDEQMLNVQNKNSSYFVEWIPNNVKTAVCDIPPRGLKMSATFIGNSTAIQELFKRISEQFTAMFRRKAFLHWYTGEGMDEMEFTEAESNMNDLVSEYQQYQDATADEQ
On to B1, for which the Kd stood at 3.1 µM.
